Results as given in paper PMC6919601, “Identification of Plasmodium dipeptidyl aminopeptidase allosteric inhibitors by high throughput screening” (PLoS ONE, 2019).
Several values for one entry are separate records, joined by “and”; a condition that tells them apart may be missing. Identical values can stand only once. About 230 (0.21%) of roughly 110,000 compounds showed an effect of 50% or more. This is one part of the list.

Target: DPAP1 (Plasmodium falciparum, UniProt Q8IIJ9)
Test: primary screen, percent inhibition; read by cleavage of a fluorogenic dipeptide substrate; higher = more effect of the substance
Parameters: species or system P. falciparum D10 trophozoite lysates; single well
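Also: 30 min substrate incubation versus DMSO and 10 µM JCP410 controls.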

Sequence of DPAP1 (Q8IIJ9 whole entry, looked up): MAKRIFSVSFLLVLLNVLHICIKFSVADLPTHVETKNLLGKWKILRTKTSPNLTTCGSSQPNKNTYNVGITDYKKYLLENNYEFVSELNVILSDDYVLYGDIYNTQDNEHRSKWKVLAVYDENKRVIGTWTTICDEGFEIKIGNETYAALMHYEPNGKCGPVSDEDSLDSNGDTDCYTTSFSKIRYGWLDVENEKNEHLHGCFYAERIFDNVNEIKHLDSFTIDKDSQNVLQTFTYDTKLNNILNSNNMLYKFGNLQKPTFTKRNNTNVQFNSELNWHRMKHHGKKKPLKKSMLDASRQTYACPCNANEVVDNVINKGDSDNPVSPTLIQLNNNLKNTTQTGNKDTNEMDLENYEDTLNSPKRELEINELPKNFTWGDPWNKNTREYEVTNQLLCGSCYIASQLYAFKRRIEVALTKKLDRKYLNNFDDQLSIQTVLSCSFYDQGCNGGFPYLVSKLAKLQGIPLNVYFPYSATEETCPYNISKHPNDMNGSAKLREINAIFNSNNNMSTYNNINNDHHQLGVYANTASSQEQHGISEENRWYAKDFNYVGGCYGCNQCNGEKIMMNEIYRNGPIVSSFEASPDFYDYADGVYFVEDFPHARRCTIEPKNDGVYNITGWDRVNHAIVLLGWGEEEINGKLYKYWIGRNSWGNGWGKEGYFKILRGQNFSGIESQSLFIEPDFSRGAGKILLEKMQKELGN

| Compound | % Inhibition @ 10 uM |
| --- | --- |
| CC1=CCC(C(C)(C)NC(=O)c2ccccc2)C/C1=N/O (stereo not shown) | 4.63% |
| O=C(c1ccc(CS(=O)(=O)Cc2cccc(Cl)c2)o1)N1CCOCC1 | 0.718% |
| Cc1cc(C)c(C#N)c(SCC(=O)c2cccc(Br)c2)n1 | -2.8% |
| Cc1ccccc1OCc1nc2c3c(C)c(C)oc3ncn2n1 | 0.098% |
| Cn1ncc2c(NCCCO)ncnc21 | 0.258% |
| COCCCNC(=O)CSc1nc2c(sc3ccccc32)c(=O)n1Cc1cccnc1 | 4.02% |
| CCCNC(=O)c1ccc2c(c1)nc(C)n2-c1cccc(Cl)c1 | 1.42% |
| CCc1nnc2c3c4c(sc3ncn12)CCCC4 | -2.62% |
| CC(C)c1ccc(C2NC(C(=O)O)CS2)cc1 (stereo not shown) | -7.97% |
| COc1cc(Br)c(CCNC(=O)COc2ccc(C)cc2)cc1OC | -3.68% |
| O=C(c1ccc(F)cc1)N1CCN(C(=O)c2ccc(F)cc2)CC1 | 1.38% |
| O=C(CSc1nc2nccnc2c(=O)n1Cc1cccs1)NCCc1ccccc1 | 1.68% |
| C1=C(c2ccc3c(c2)c2c4n3CCNC4CCC2)CCC1 (stereo not shown) | 2.25% |
| CCCCNC(=O)CN(C)S(=O)(=O)c1ccc(OC)cc1 | 1.78% |
| N#CC1=C(N)Oc2[nH]nc(-c3ccccc3)c2C1c1ccc(Br)s1 (stereo not shown) | 8.6% |
| CN1C2CCC1CC(NC1CCCCC1)C2 (stereo not shown) | 2.6% and -6.36% |
| c1cc2c(cc1-c1nnc(CC34CC5CC(CC(C5)C3)C4)o1)OCO2 | -2.12% |
| O=C1c2ccccc2NC(c2ccc3c(c2)OCO3)N1Cc1ccccc1 (stereo not shown) | -1.74% |
| Cc1noc(/C=C/N2CCOCC2)c1S(=O)(=O)N1CCCC(C(=O)NC2CCCC2)C1 (stereo not shown) | -0.458% |
| CC(=O)c1cc(-c2ccc(F)cc2)n(CC(=O)NC2CCCC(C)C2C)c1C (stereo not shown) | 1.47% |
| COCc1cc(C)nc2sc(C(=O)N3CCC(C)CC3)c(N)c12 | -3.5% |
| CC(=O)CC(=O)Nc1cccc(C(F)(F)F)c1 | 1.7% |

| Compound | % Inhibition @ 10 uM |
| --- | --- |
| O=C1c2[nH]nc(-c3ccccc3O)c2C(c2cccc(O)c2)N1CCO (stereo not shown) | -1.35% |
| CCCCC(=O)Nc1cc(N(C)C)nc2ccccc12 | 1.9% |
| O=C1[C@@H]2C3C=CC(O3)[C@H]2C(=O)N1CNc1ccc(Cl)c(Cl)c1 | 1.96% |
| CCc1ccc2c(c1)C(O)(CC(=O)c1cccs1)C(=O)N2 (stereo not shown) | 1.17% |
| O=S(=O)(Nc1nc2ccc(Cl)cc2s1)c1ccccc1 | 3.01% |
| CCCc1cc(O)nc(SCC(=O)Nc2ccc(SC#N)cc2)n1 | 0.843% |
| CCOC(=O)c1[nH]c(C)c(C(=O)O)c1C | 3.42% |
| CCOC(=O)c1cc(-c2ccc(F)cc2)n(CC(=O)N2CCc3ccccc3C2)c1C | -1.88% |
| CC1=C(CCN2CCN(c3ccc([N+](=O)[O-])cc3)CC2)C(C)(C)CCC1 | 1.42% |
| CC(C)(C)NC(=O)c1ccccc1NC(=O)CCN1C(=O)c2ccccc2C1=O | 0.777% |
| CCC(=O)/N=C(\N)Nc1nc(C)c2cc(C)cc(C)c2n1 | 5.55% |
| COc1cccc(Cn2c(SCc3ccc(C(=O)NCC4CCCO4)cc3)nc3ccncc32)c1 (stereo not shown) | 1.41% |
| COc1ccccc1CC(C)NC(C)CCCC(C)(C)O (stereo not shown) | -0.0908% |
| CCOC(=O)N1CCN(Cc2cc(C)ccc2C)CC1 | -4.95% |
| CCOC(=O)N1CCN(C(=O)c2ccc(CS(=O)Cc3ccccc3Cl)o2)CC1 (stereo not shown) | -4.82% |
| N#C/C(=C/c1ccc(F)cc1)c1nc(-c2ccc([N+](=O)[O-])cc2)cs1 | 7.04% |
| COCCn1c(CN2CCN(CCO)CC2)nc2c1c(=O)n(C)c(=O)n2C | -7.05% |
| CCOc1cc(CNc2ccccc2C)ccc1OC | -4.68% |
| CC(=O)c1cccc(NC(=O)/C=C/c2ccc3c(c2)OCO3)c1 | 3% |
| COc1ccc(C(=O)Nc2sc3c(c2C(N)=O)CCCC3)cc1 | 3.7% |
| NS(=O)(=O)c1ccc(CNC(=O)c2cc(=O)c3cc(Cl)ccc3o2)cc1 | -1.47% |
| Cc1nn(C(=O)/C=C/c2ccccc2)c2c1C1C(C2)C1(C)C (stereo not shown) | 4.41% |

| Compound | % Inhibition @ 10 uM |
| --- | --- |
| Cc1cc2nc(SCC(=O)C(C)(C)C)[nH]c2cc1C | 2.94% |
| CC(C)n1cc(/C=C2/SC(=O)N(CC(=O)N3CCCC3)C2=O)c2ccccc21 | -4.5% |
| C/N=c1\c(NS(=O)(=O)c2cccc(C#N)c2)c(O)oc2ccccc12 | -1.21% |
| Cc1cccc(-n2c(O)cc(=O)nc2SCc2ccccc2)c1 | -1.38% |
| CN1C(=O)N(C)C(=O)C(CCc2ccncc2)(CCc2ccncc2)C1=O | 18.1% |
| Cc1cc(OCC(=O)Nc2ccc(S(=O)(=O)Nc3onc(C)c3C)cc2)cc(C)c1Cl | 3.68% |
| CC1C(C)C(O)(c2ccccc2)CCN1C (stereo not shown) | 6.33% |
| Cc1nc2ncnn2c(O)c1CCC(=O)NCc1ccc2c(c1)OCO2 | -3.33% |
| COC(=O)c1ccccc1NC(=O)Cc1cccs1 | -7.5% |
| CC(=O)Nc1cccc2c1sc1nc3n(c(=O)c12)CCCCC3 | -7.87% |
| CCC(Cc1ccccc1)NCc1c(C(=O)O)c(C)n(Cc2ccccc2)c1C (stereo not shown) | 1.41% |
| COc1cc2c3c(c1OC)C1(C=CC(=O)C=C1)CC3N(S(=O)(=O)c1ccc(C)cc1)CC2 (stereo not shown) | 2.1% |
| CCC(NC(=O)c1ccccc1)c1ccc(OC)c(OC)c1 (stereo not shown) | -3.45% |
| COc1ccc(N2C(=O)CC(N(CCc3ccc(OC)c(OC)c3)C(C)=O)C2=O)cc1 (stereo not shown) | -3.09% |
| N#C/C(=C\c1c(Oc2ccccc2)nc2ccccn2c1=O)C(=O)NCCc1ccccc1 | 1.06% |
| COc1ccc(CC(=O)Nc2cccc(C#N)c2)cc1 | 1.59% |
| COc1cccc(S(=O)(=O)NCc2ccc(C(=O)Nc3cccnc3)cc2)c1 | -7.25% |
| CC1(C)C2CCC1(C)C(/N=C/C1=C(O)c3ccccc3C1=O)C2 (stereo not shown) | -5.08% |
| Cc1ccc2c(c1)c1c3n2CCN(CC(O)CN2CCN(C(=O)c4ccco4)CC2)C3CCC1 (stereo not shown) | 1.96% |
| COc1ccc(/C=C2/SC(=O)N(CC(=O)N3CCN(c4ccccc4)CC3)C2=O)c(C)c1 | 1.8% |
